The campaign covered roughly 310,000 compounds. About 2,200 (0.71%) showed an effect of 50% or more. Effects have a minus sign here. The list shows a part of the results.
Target: human ether-à-go-go-related gene (hERG) potassium channel (human, UniProt Q12809)
Experiment: primary screen, population patch clamp on CHO cells stably expressing hERG

Sequence of human ether-à-go-go-related gene (hERG) potassium channel (Q12809 whole entry, looked up): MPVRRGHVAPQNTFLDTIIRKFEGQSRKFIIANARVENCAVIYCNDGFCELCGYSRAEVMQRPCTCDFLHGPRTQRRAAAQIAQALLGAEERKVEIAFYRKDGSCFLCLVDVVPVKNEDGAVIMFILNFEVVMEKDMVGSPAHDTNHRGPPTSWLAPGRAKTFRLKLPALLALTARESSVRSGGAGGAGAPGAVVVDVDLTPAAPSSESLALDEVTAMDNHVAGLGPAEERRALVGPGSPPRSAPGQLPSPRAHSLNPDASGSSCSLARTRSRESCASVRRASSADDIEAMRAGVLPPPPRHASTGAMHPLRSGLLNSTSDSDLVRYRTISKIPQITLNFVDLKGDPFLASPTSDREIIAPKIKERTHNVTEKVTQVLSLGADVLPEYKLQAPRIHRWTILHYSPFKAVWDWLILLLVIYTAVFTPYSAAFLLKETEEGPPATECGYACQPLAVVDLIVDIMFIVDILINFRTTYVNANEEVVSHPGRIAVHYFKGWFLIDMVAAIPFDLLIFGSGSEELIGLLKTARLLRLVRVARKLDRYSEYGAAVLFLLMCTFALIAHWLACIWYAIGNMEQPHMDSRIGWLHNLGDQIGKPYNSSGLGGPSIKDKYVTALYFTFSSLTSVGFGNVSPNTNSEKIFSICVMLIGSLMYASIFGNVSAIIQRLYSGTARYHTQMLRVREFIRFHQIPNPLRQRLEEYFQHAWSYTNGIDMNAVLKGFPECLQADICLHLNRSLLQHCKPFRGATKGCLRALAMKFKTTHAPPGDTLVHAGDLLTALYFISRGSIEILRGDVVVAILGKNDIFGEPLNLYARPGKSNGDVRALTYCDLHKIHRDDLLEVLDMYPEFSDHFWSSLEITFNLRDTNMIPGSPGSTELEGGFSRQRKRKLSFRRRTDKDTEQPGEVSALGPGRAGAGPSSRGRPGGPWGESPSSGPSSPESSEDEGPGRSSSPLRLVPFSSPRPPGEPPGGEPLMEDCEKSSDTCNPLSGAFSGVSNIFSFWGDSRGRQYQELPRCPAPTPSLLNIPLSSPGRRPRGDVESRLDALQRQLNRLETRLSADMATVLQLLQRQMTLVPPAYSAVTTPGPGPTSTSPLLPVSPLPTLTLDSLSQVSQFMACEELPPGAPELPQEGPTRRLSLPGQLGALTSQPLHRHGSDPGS

Structure (SMILES)	hERG current change (%, negative = inhibition) at 1uM
Cc1cc(C)cc(N(CCC(=O)O)S(=O)(=O)c2ccc3ccccc3c2)c1	9.76%
O=C(CSc1nnc(COc2ccccc2F)n1-c1ccccc1)NC1CCS(=O)(=O)C1 (stereo not shown)	12.2%
COc1ccc(NC(=O)COc2cccc3c2CCN(Cc2cccnc2)C3=O)cc1	-6.83%
COc1ccc(C(=O)n2cc(C(=O)c3cc(C)ccc3O)cn2)cc1	4.48%
O=C(N1CCOCC1)N1c2ccccc2Sc2ccccc21	3.55%
COC(=O)C1CCN(C(=O)Cc2ccc(C)cc2)CC1	10.2%
S=c1[nH]nc(-c2ccc3ccccc3n2)n1-c1ccc(Cl)cc1	7.07%
CCOc1ccc(-n2c(C)c(C(C)=O)c(C(C)=O)c2C)cc1	2.39%
Cc1cc(C)cc(NC(=S)NCc2ccc(S(N)(=O)=O)cc2)c1	13.4%
CC1CCN(S(=O)(=O)c2cc(Cl)ccc2Br)CC1	6.28%
Cc1cccc(C)c1OP(N)(=O)OCC(F)(F)F (stereo not shown)	3.53%
O=C(CNC(=O)c1ccccc1)N/N=C/c1cccs1	1.92%
O=S(=O)(NCCc1ccncc1)c1ccc(F)cc1	13.6%
O=c1[nH]c(N2CCc3ccccc32)nc2c1CCCC2	2.53%
CC(=O)c1c(C)oc2c1C(=O)c1ccccc1C2=O	4.13%
COc1ccc(-c2noc(-c3ccoc3C)n2)cc1	13.1%
COC(=O)C1=C(C)NC2=C(C(=O)CC(C)(C)C2)C1c1cn(Cc2ccc(Br)cc2)nc1-c1ccccc1 (stereo not shown)	-11%
CN1CCN(C2Cc3ccc(F)cc3Sc3cc(F)c(Cl)cc32)CC1.CS(=O)(=O)O.O (stereo not shown)	-15.5%
CCc1nnc(NC(=O)c2cc(Cl)ccn2)s1	8.93%
COc1ccc(C2C(C(=O)N3CCCCC3)CC(=O)N2c2ccc(OC)cc2)cc1 (stereo not shown)	-10.5%
CCc1cccc(C)c1NC(=O)c1ccc2c(c1)CCN2S(C)(=O)=O	6.45%
COc1cc(NC(=S)N2CCN(S(=O)(=O)c3ccc(F)cc3)CC2)cc(OC)c1	17.7%

Structure (SMILES)	hERG current change (%, negative = inhibition) at 1uM
O=C(CSc1ncnc2ccccc12)NCC(=O)c1ccccc1	4.86%
Cc1ccc(C(=O)/C=C/Nc2ccccn2)cc1	-6.06%
Cn1ncc2c(c(SCc3ccc(Cl)cc3Cl)nn2C)c1=O	14.1%
COc1ccc(-c2cc(C(=O)N3CCCCCC3)no2)cc1	12.9%
C=COCCn1c(-c2nonc2N)nc2ccccc21	9.71%
COc1ccc(S(=O)(=O)N(CC(=O)N2CCCC2)Cc2ccccc2)cc1	-11.6%
O=C(N/N=C/c1cc(Br)c(Br)o1)C(O)c1ccccc1 (stereo not shown)	3.32%
Cc1ccc(C(=O)c2c3ccc(C(F)(F)F)cc3[n+]([O-])n2CCCC(N)=O)cc1	-39%
COc1ccc(-c2noc(CCC(=O)NCCCN3CCN(c4ccc(F)cc4)CC3)n2)cc1	-30.1%
CCC1(CC)NC(=O)N(CC(=O)N2N=C(c3ccc(Cl)cc3)CC2c2ccco2)C1=O (stereo not shown)	1.55%
O=C(Cn1cnnn1)Nc1cccc([N+](=O)[O-])c1	7.12%
CCc1ccc(NCc2nc(-c3ccccc3)no2)cc1	10.4%
O=C(CN1C(=O)C2CCCCC2C1=O)Nc1nc(-c2ccc(F)cc2)cs1 (stereo not shown)	10.8%
CC(=O)c1sc(NC(=O)CCCOc2ccccc2C)nc1C	18.8%
Cc1nc(CSc2nnc3scc(-c4ccc(Cl)cc4)n23)cs1	2.22%
CS(=O)(=O)N(CC(=O)N1CCN(c2cccc(Cl)c2)CC1)c1ccccc1	7.53%
CCNc1ccc(C(=O)OCC)cc1NC(=O)c1cccc(S(=O)(=O)N2CCOCC2)c1	10.8%
O=C(CSc1ccccc1C(=O)O)NC12CC3CC(CC(C3)C1)C2	16.2%
CC(C)Oc1ccc(CNC(=O)Cn2c(=O)c3cccn3c3cccnc32)cc1	6.17%
COc1cc(Cl)c(C)cc1NC(=O)c1ccc2c(c1)OCO2	15.4%
COc1ccc(Cn2cnc3c([N+](=O)[O-])c(C)c(C)cc32)cc1	4.42%
CCOC(=O)c1[nH]c2ccccc2c1NC(=S)Nc1cccc(C)c1	4.71%

Structure (SMILES)	hERG current change (%, negative = inhibition) at 1uM
COc1ccc2c(c1)CC1(CN2C)C(=O)NC(=O)N(CCc2ccccc2)C1=O (stereo not shown)	-6.39%
O=C(COc1ccccc1)N1c2ccccc2Sc2ccccc21	9.48%
CCOC(=O)[C@H]1[C@H]2COc3cc(OC)ccc3[C@@H]2N2C(=O)c3ccc(F)cc3NC(=O)[C@@]12C	13.1%
CN1CCCN(C(=O)c2ccc(Cl)cc2)CC1	11.7%
Cc1ccc(-c2csc3ncnc(Sc4nnc(CN5CCCCCC5=O)o4)c23)cc1	-2.37%
CCN(c1ccccc1)S(=O)(=O)c1ccc(C(=O)NCCc2ccc(S(N)(=O)=O)cc2)cc1	15.4%
O=C(CCS(=O)(=O)c1ccc(F)cc1)N1CCN(c2ccccc2)CC1	4.65%
CCCNc1cc(C)c(C#N)c2nc3ccccc3n12	13.9%
CCOc1ccccc1NC(=O)C1CCN(c2ccc(S(=O)(=O)N3CCCC3)cc2)CC1	-4.79%
COc1cc(C2N(C)C(=O)c3ccccc3N2C)ccc1O (stereo not shown)	15.9%
COc1ccc2nc(/C=N/NC(=O)CCNC(=O)OC(C)(C)C)ccc2c1	-0.945%
N=C1S/C(=C\c2ccc(O)cc2)C(=O)N1c1ccc(F)cc1	5.7%
CCOc1nc(-c2ccccc2)ccc1-c1noc(-c2cccs2)n1	3.81%
CCn1c(C)nc2cc(S(=O)(=O)C(F)(F)C(F)C(F)(F)F)ccc21 (stereo not shown)	12.8%
O=C(c1ccco1)N1CCN(Cc2nc(-c3cccs3)no2)CC1	2.22%
CN1CCC(=O)N([C@H](CSc2ccccc2)c2ccccc2)CC1	-46.4%
COc1ccc(C(=O)N/C(=C/c2cccs2)C(=O)NC(C)(C)C)cc1OC	10.1%
COc1ccc(-c2cc(C(=O)N3CCc4ccccc4C3)no2)cc1	5.04%
Cc1ccccc1N1CCN(C2CCCN(C(=O)c3cc[n+]([O-])cc3)C2)CC1 (stereo not shown)	12.3%
O=C(NC(C(=O)N/N=C/c1cc([N+](=O)[O-])ccc1O)c1n[nH]c(=O)c2ccccc12)c1ccccc1 (stereo not shown)	15.5%
O=C(NCCNS(=O)(=O)c1ccc(C(F)(F)F)cc1)N1CCOCC1	10.5%
COC(=O)c1sccc1NC(=O)Nc1ccc(OC)cc1OC	-2%

Structure (SMILES)	hERG current change (%, negative = inhibition) at 1uM
Cn1c(SCC(=O)NC(=O)c2cccc([N+](=O)[O-])c2)nnc1-c1ccc(F)cc1	-3.7%
CC1=NCCN1S(=O)(=O)c1ccccc1[N+](=O)[O-]	8.12%
ClCc1csc(-c2ccc(Cl)cc2)n1	2.95%
O=C(N/N=C/c1ccc(C(F)(F)F)cc1)c1ccncc1	1.99%
Cc1cccc(OCCC(=O)Nc2ccc(N3CCOCC3)cc2N2CCOCC2)c1	12.4%
COc1ccc(NC(=O)c2ccccn2)cc1S(=O)(=O)N1CCOCC1	7.48%
CCCC(=O)O[C@]1(C(=O)CO)CC[C@H]2[C@@H]3CCC4=CC(=O)CC[C@]4(C)[C@H]3[C@@H](O)C[C@@]21C	11.3%
COC(=O)c1[nH]c2ccccc2c1NS(=O)(=O)c1ccc(OC)cc1OC	2.35%
O=C(Nc1ccc(S(=O)(=O)NCc2ccccc2)cc1)C1CCCCC1	17.1%
CC(C)(C)C(=O)Nc1ncc(C(F)(F)F)cc1Cl	3.37%
O=C(c1ccccc1)c1cc2ccccc2o1	12.2%
COc1ccccc1CN1CC(C(=O)N(C)Cc2ccncc2C)CCC1=O (stereo not shown)	5.35%
CCOC(=O)CN1N=C(/C=C/c2ccccc2)CCC1=O	-5.36%
COc1cccc(CC2(CO)CCCN(Cc3cn[nH]c3-c3ccccc3)C2)c1 (stereo not shown)	-6.05%
CO/N=C/C(C#N)=C/c1ccc(OC)c(OC)c1	12.5%
O=C(NC1CCCCC1)Oc1cc2oc(=O)sc2cc1Cl	-3.99%
COc1ccc(-c2noc(CSc3nnc(Cc4ccccc4)n3-c3cccc(C)c3)n2)cc1OC	3.88%
COc1cc(/C=C2\SC(=S)N(N3CCOCC3)C2=O)ccc1O	5.44%
COc1ccc(-n2nc3c(c2NC(=O)c2ccc(Br)cc2)CS(=O)C3)cc1 (stereo not shown)	-12.2%
Cc1nc2ncnn2c(C)c1CCC(=O)NCCCN1CCN(c2cccc(Cl)c2)CC1	5.19%
CCC(C(=O)NCCC(C)C)N(Cc1ccccc1Cl)C(=O)c1snc(C(N)=O)c1N (stereo not shown)	14.4%
CC(=NCCC1=CCCCC1)c1c(O)n(-c2ccccc2)c(=O)[nH]c1=O	13.4%

— article PMC4336329 (PLoS ONE, 2015)
